Data published in publication PMC4336329 (PLoS ONE, 2015).
Among all 310,000 compounds or so, about 2,200 (0.71%) showed an effect of 50% or more. Effects have a minus sign here. This is one part of the list.

target: human ether-à-go-go-related gene (hERG) potassium channel (human, UniProt Q12809); test: primary screen, population patch clamp on CHO cells stably expressing hERG
Sequence (Q12809 whole entry, looked up): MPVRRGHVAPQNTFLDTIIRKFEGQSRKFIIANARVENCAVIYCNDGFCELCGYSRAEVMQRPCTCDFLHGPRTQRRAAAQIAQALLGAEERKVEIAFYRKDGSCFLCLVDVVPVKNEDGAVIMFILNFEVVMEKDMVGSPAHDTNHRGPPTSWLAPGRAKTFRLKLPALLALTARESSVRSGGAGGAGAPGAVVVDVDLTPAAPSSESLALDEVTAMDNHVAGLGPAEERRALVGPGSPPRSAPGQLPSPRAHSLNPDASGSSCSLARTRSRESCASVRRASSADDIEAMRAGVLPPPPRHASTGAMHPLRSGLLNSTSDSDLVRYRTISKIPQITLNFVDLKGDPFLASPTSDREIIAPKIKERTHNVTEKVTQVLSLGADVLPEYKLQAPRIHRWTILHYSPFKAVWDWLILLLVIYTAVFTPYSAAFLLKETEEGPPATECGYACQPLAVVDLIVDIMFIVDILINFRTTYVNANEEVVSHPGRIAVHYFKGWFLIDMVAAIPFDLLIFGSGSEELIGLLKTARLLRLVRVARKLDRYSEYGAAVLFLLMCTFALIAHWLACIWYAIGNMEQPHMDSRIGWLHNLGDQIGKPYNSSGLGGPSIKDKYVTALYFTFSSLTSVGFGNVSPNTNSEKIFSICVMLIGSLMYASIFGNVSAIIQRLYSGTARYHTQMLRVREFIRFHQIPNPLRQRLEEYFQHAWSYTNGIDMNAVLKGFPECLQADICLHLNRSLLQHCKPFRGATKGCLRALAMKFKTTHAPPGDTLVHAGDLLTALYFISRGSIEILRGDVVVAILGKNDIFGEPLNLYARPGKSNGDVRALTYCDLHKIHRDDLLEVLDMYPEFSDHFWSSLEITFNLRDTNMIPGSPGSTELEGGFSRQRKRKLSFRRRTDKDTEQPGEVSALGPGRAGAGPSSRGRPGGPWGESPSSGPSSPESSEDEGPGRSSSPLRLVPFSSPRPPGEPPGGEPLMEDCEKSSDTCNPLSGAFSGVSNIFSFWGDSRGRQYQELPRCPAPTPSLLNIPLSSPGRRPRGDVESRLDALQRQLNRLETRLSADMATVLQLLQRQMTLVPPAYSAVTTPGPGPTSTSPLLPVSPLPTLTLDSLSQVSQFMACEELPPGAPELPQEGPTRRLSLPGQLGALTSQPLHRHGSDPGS

SMILES | hERG current change (%, negative = inhibition) at 1uM [%]
CC(=O)Nc1ccc(S(=O)(=O)N(Cc2cccnc2)Cc2cc3ccc(C)cc3[nH]c2=O)cc1 | 10.7
COc1ccccc1NC(=O)Cn1cc(C(=O)C2CC2)c2ccccc21 | 1.55
CCc1ccc(NC(=O)CCC(=O)N2CCSc3ccccc32)cc1 | 8.82
COc1ccccc1NS(=O)(=O)NC(=O)c1c(C)[nH]c2ccccc12 | 14.7
Cc1ccccc1NC(=O)C(=O)NCCCN1CCCC1=O | 20.7
N#Cc1ccc(CN2CCN(C(=O)c3ccccc3)CC2)c(Cl)c1 | -5.84
CCCCc1nnc(SCc2ccc(OCC)cc2)n1N | 12.2
Fc1cccc(Cl)c1-c1nnc2ccc(C(F)(F)F)cn12 | 11.8
CC(C)[C@H](NC(=O)NCCc1ccccc1)C(=O)O | 11.2
Cc1ccc(S(=O)(=O)N(C)c2ccc(C(=O)NCc3ccccn3)cc2)cc1 | 4.59
FC(F)(F)c1cccc(-c2nc(-c3ccncc3)no2)c1 | 7.89
CCOC(=O)CSc1ccc(-c2nc3ccccc3[nH]2)cn1 | 9.8
CCOc1ccc2nc(N3CCC(C(=O)Nc4nnc(CC)s4)CC3)sc2c1 | 1.64
COc1cc(C=C2C(=O)c3ccccc3C2=O)cc(OC)c1OC | -0.75
S=C1NCN(CCc2ccccc2)CN1Cc1ccccc1 | 17.4
CCCCn1c(O)c(C=Nc2c(C)n(C)n(-c3ccccc3)c2=O)c(=O)[nH]c1=O | 5.7
CN1CCN(c2nc3c(c(=O)[nH]c(=O)n3C)n2CCSc2nc3ccccc3s2)CC1 | 6.06
CC(=O)c1cccc(NC(=O)NCc2ccccn2)c1 | -0.444
CCCN(CCC)CCN1C(=O)C2C(C(=O)Nc3ccc(C)cc3)C3C=CC2(O3)C1C(=O)NC1CCCCC1 (stereo not shown) | 9.92
CC(=O)Nc1ccc([C@H]2[C@H](C)CC[C@H]3C(=O)N4[C@@H](CC[C@@H](C)[C@@H]4c4ccc(NC(C)=O)cc4)C(=O)N32)cc1 | 22.3
CC1CCN(S(=O)(=O)c2ccc3c(c2)N(CC(=O)N(C)Cc2ccco2)C(=O)CO3)CC1 | 12.3
O=P(O)(O)c1ccccc1OCc1ccccc1 | 5.82
O=C(COC(=O)C1=COCCO1)Nc1ccc(F)cc1 | -0.194
Cc1ccc(CN2C(=O)N/C(=C\c3cccn3-c3cccc(C(=O)O)c3)C2=O)cc1 | 8.31
CN1CCCN(S(=O)(=O)c2ccc3ccccc3c2)CC1 | 13.7
COc1ccc(C2C(C#N)=C(N)Oc3cc4c(cc32)OCO4)cc1 (stereo not shown) | 7.31
C/C(=N\Nc1cccc2cccnc12)c1ccc[nH]1 | 6.24
CCC1CCCCN1CCCNC(=O)c1ccc(/C=C2/Sc3ccccc3NC2=O)cc1 (stereo not shown) | -38.8

SMILES | hERG current change (%, negative = inhibition) at 1uM [%]
O=C(Nc1ccc(CN2CCCCC2)cc1)c1ccc(Br)o1 | -7.22
COc1ccc(C2Nc3ccccc3C(=O)N2O)cc1CN1CCOCC1 (stereo not shown) | 4.02
O=C(COc1ccc2ccc(=O)oc2c1)Nc1ccc(N2CCOCC2)cc1 | 12.9
O=C(Cn1cnc2c(nnn2Cc2ccccc2)c1=O)c1ccc(Cl)cc1 | 11.1
CCN1C(=O)N[C@@H](c2cccc(C(F)(F)F)c2)[C@H](C(=O)OC)[C@H]1C | 6.91
Cc1cc(-c2ccccc2)nc(SCC(=O)c2cccc([N+](=O)[O-])c2)n1 | 4.42
C=CCN1C(C(=O)c2ccccc2)=C(OC(=O)COc2ccccc2)c2ccccc2S1(=O)=O | 10.6
O=C(Nc1ccnn1C1CCN(C(=O)c2ccc(Cl)cc2)CC1)C1CC1 | -5.06
COc1cc(C=O)ccc1OS(=O)(=O)c1ccc(NC(C)=O)cc1 | 7.51
Cc1ccc(C(=O)COC(=O)c2cn(-c3ccccc3)nc2-c2ccccc2)cc1[N+](=O)[O-] | 10.9
Cc1cccc(C(=O)NNC(=O)CN2C(=O)c3ccccc3C2=O)c1 | 6.01
COc1ccc(C(=O)COC(=O)CCN=C2NS(=O)(=O)c3ccccc32)cc1OC | -12.1
CC(C)c1ccc(S(=O)(=O)/N=C2/C=C(Sc3ncn[nH]3)C(=O)c3ccccc32)cc1 | 18.7
CCC(NS(=O)(=O)c1cccs1)c1ccc(C)cc1 (stereo not shown) | 8.69
COc1ccccc1/C=C(\C#N)C(=O)Nc1ccc(S(N)(=O)=O)cc1 | 16.8
CCSc1nnc(Cn2c(=O)sc3ccccc32)n1C | 12.4
O=C(Nc1ccc(S(=O)(=O)N2CCCC2)cc1)c1cccnc1 | 14.2
CN1CCN(S(=O)(=O)c2cccc(C(=O)Nc3nc(-c4ccccc4)cs3)c2)CC1 | 1.94
CCCCn1c(N)c(N(CCOC)C(=O)CN2C(=O)C3CCCCC3C2=O)c(=O)[nH]c1=O (stereo not shown) | 8.64
CCOC(=O)c1cnc(SCc2nc(N)nc(Nc3ccc(OC)cc3)n2)nc1N | 13.9
COc1ccc(/C=N/NC(=O)c2ccn[nH]2)cc1CN1CCOCC1 | 5.38
Cc1cc(C)cc(OCC(=O)OCc2nnc(-c3ccccc3)o2)c1 | 10.9
C=CCNC(=O)/C(=C\c1ccc2c(c1)OCO2)NC(=O)c1ccc(Br)cc1 | -5.05
O=C(Nc1ccc(F)cc1F)C1CCCN(c2ncnc3c2nc2n3CCCCC2)C1 (stereo not shown) | 0.36
Cn1c(SCC(=O)Nc2nccs2)nnc1C1CC1 | 11.8
O=c1oc(-c2cccs2)nc2sc3c(c12)CCC3 | 10.9
COCCOC(=O)C1=C(C)N(c2ccccc2)C(=S)NC1c1ccccc1C(F)(F)F (stereo not shown) | 11.4
